Assay results reported in PubChem BioAssay AID1347417 (National Center for Advancing Translational Sciences (NCATS), 2020).
Several values for one entry are separate records, joined by “and”; a condition that tells them apart may be missing. Equal entries are not always repeated. In all, about 120,000 compounds went through this assay and about 5,300 (4.4%) were called active. The shares of active, inactive and inconclusive entries below differ from those in the screen. Calls follow the shape of the dose curve; as a rule, active = well fitted inhibition curve with a large enough effect; inconclusive = small, poorly fitted or top-dose-only effect; inactive = no such curve, though single readings can be large or run the other way. Potencies of inconclusive entries are doubtful fits and often do not repeat.

experiment: qHTS Primary assay for Inhibitors of Plasmodium falciparum Dd2 growth in vitro; also: nearly all actives have a fitted effect of over 65% in size; settings: P. falciparum Dd2 growth, SYBR Green, 72 h; series mostly up to 28.9 µM
In short: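 Readout: SYBR Green fluorescence, 485 nm excitation, 535 nm emission, after ~16 h lysis at 37C. Before that, Dd2-infected red cells (2.5% hematocrit) grew 72 h with compound, 29 uM top final concentration.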
Potency is read from the fitted curve at half-maximal effect; tags tell the direction and shape of the fitted curve.

Q: With `CC(=O)N1CCC([C@@H]2CN(Cc3cc(F)c(F)c(F)c3)C[C@H]2CO)CC1` as the compound, how does the Potency read?
A: The Potency was inconclusive: 6.31 µM [inhibitor, partial curve, poor fit].

Q: With `COc1cc(OC)cc(-c2nc3nc(C)c(CCC(=O)NCCC(C)C)c(C)n3n2)c1` as the compound, how does the Potency read?
A: The Potency was “inactive”.

Q: Which Potency does the source give for `O=C(N[C@H]1CO[C@H]2[C@@H]1OC[C@@H]2Nc1nccc(-c2ccc(-c3ccccc3)cc2)n1)c1ccccc1` here?
A: Its Potency is inconclusive: 6.31 µM [inhibitor, partial curve].

Q: For `Cc1ncc2n1C(=O)N(C1CCN(Cc3ccccc3)CC1)C2`, which Potency is on record?
A: Its Potency is inconclusive: 12.6 µM [inhibitor, partial curve, poor fit] and inconclusive: 31.6 µM [inhibitor, single point].

Q: With `Cc1cc(=O)n(CC(=O)Nc2cccc(C)c2C)c(N(C)Cc2ccccc2)n1` as the compound, how does the Potency read?
A: The Potency was “inactive”.

Q: With `Cc1cc(C)c(NC(=O)CCCn2c(C)c3cnn(-c4ccccc4)c(=O)c3c2C)c(C)c1` as the compound, how does the Potency read?
A: The Potency was inconclusive: 10 µM [inhibitor, partial curve, poor fit].

Q: With `CCN1c2cc(C(=O)NCCc3ccccc3)ccc2C(=O)N2CCCCC21` (stereo not given) as the compound, how does the Potency read?
A: The Potency was inconclusive: 3.98 µM [inhibitor, single point].

Q: With `Cc1ccc(S(=O)(=O)N2CC(C(=O)NC3CCCCC3)C3(CCOCC3)C2)cc1` (stereo not given) as the compound, how does the Potency read?
A: The Potency was inconclusive: 10 µM [inhibitor, single point].

Q: For `COc1ccc(-c2cc(OC(=O)c3cccc(Cl)c3)c3c(C)oc(C)c3c(=O)c2)cc1`, which Potency is on record?
A: Its Potency is inconclusive: 11.2 µM [inhibitor, single point].

Q: Which Potency does the source give for `O=C(N[C@H](Cc1ccncc1)C1CC(O)C1)c1cccn1C1CC1` (stereo not given in full) here?
A: Its Potency is “inactive”.

Q: Which Potency does the source give for `COc1ccc(CN2CCC(O)(c3csc(CN4CC[C@@H](O)C4)n3)CC2)cc1` here?
A: The Potency was inconclusive: 4.47 µM [inhibitor, partial curve, poor fit].

Q: With `COc1ccc(-c2noc(-c3ccc(NCC4CCCO4)c([N+](=O)[O-])c3)n2)cc1` (stereo not given) as the compound, how does the Potency read?
A: The Potency was “inactive”.

Q: With `O=C(CSc1nc2c([nH]c3ccccc32)c(=O)n1-c1ccccc1)Nc1ccc(Cl)c(Cl)c1` as the compound, how does the Potency read?
A: The Potency was inconclusive: 17.8 µM [inhibitor, single point].

Q: With `CN1[C@@H](CCC(=O)NCc2ccc(F)cc2)CNC(=O)[C@@H]2[C@H]1CCN2Cc1ccc(C(F)(F)F)cc1` as the compound, how does the Potency read?
A: The Potency was inconclusive: 12.6 µM [inhibitor, single point].

Q: Which Potency does the source give for `COc1ccccc1CN1CCc2c(n(CCOc3ccccc3)n(-c3ccccc3)c2=O)C1` here?
A: Its Potency is “inactive”.

Q: With `c1ccc(-c2cn3c(n2)CO[C@@H](CNCC2CCCCC2)C3)cc1` as the compound, how does the Potency read?
A: The Potency was inconclusive: 10 µM [inhibitor, partial curve, poor fit].

Q: With `CCOc1ccccc1NC(=O)CSc1ncc(S(=O)(=O)c2ccc(C)c(C)c2)c(N)n1` as the compound, how does the Potency read?
A: Its Potency is inconclusive: 17.8 µM [inhibitor, single point].

Q: With `CC1(C)NC(=O)N(CC(=O)N[C@@H]2COCC[C@H]2Oc2ccc(C#N)cc2)C1=O` as the compound, how does the Potency read?
A: The Potency was “inactive”.

Q: Which Potency does the source give for `CN(C)Cc1ccc2c(c1)c(OC(C)(C)C(=O)NCCN1CCOCC1)nn2Cc1ccccc1` here?
A: The Potency was inconclusive: 2.24 µM [inhibitor, partial curve, poor fit].

Q: Which Potency does the source give for `O=C(c1ccc2[nH]ccc2c1)N1CCN(c2cc(-c3ccccc3)[nH]n2)CC1` here?
A: Its Potency is inconclusive: 2.24 µM [inhibitor, partial curve, poor fit].

Q: With `CCC1CN(Cc2cn(-c3ccccc3C)nc2-c2ccc(OC)c(F)c2)CCO1` (stereo not given) as the compound, how does the Potency read?
A: The Potency was active: 11.2 µM.

Q: For `c1cncc(-c2cc3c(cn2)CN(Cc2ccncc2)CCN3)c1`, which Potency is on record?
A: Its Potency is “inactive”.

Q: For `COc1ccc(-c2noc([C@@H]3Cc4nc[nH]c4CN3C(=O)Nc3ccc(Cl)cc3)n2)cc1`, which Potency is on record?
A: Its Potency is inconclusive: 20 µM [inhibitor, single point].

Q: Which Potency does the source give for `COc1cccc(CN2CCC3(C2)NC(=O)c2ccccc2CO3)c1` (stereo not given) here?
A: Its Potency is inconclusive: 1.41 µM [inhibitor, partial curve].

Q: For `CC(C)CN(Cc1cccnc1)C1CN(C(=O)CCc2nc3ccccc3s2)C1`, which Potency is on record?
A: The Potency was inconclusive: 17.8 µM [inhibitor, single point].

Q: Which Potency does the source give for `O=C(Nc1cccc(-c2nc3cccnc3s2)c1)c1cccc(Br)c1` here?
A: Its Potency is inconclusive: 10 µM [inhibitor, single point].

Q: Which Potency does the source give for `CCOC(=O)c1ccc(NC(=O)c2cn(-c3ccccc3)nc2-c2ccc(OC)c(OC)c2)cc1` here?
A: The Potency was inconclusive: 17.8 µM [inhibitor, single point].

Q: For `COc1ccc(-c2cc(N3CCC(NC(=O)c4cccc(Cl)c4)C3)n[nH]2)cc1` (stereo not given), which Potency is on record?
A: Its Potency is “inactive”.

Q: For `Cc1cc(C(=O)N2C[C@@H](F)C[C@H]2C(=O)N2CCc3ccccc3C2)n(C)n1`, which Potency is on record?
A: Its Potency is inconclusive: 3.16 µM [inhibitor, partial curve, poor fit].

Q: For `CN(C)C(=O)C1CN(C(=O)Nc2cccc(C(F)(F)F)c2)CC12CCOCC2` (stereo not given), which Potency is on record?
A: The Potency was “inactive”.

Q: With `Cc1cn2c(=O)c(S(=O)(=O)N3CCN(c4cc(Cl)ccc4C)CC3)c(C)nc2s1` as the compound, how does the Potency read?
A: Its Potency is “inactive”.

Q: With `O=C(NCC1Cn2cccc2C(=O)N1Cc1ccccc1)c1ccco1` (stereo not given) as the compound, how does the Potency read?
A: The Potency was inconclusive: 5.01 µM [inhibitor, partial curve, poor fit].

Q: For `O=C(CSc1c2c(nc3cc(Cl)ccc13)CCCC2)N1CCN(c2ccccc2F)CC1`, which Potency is on record?
A: Its Potency is inconclusive: 10 µM [inhibitor, single point].

Q: With `COc1ccccc1NC(=O)CSc1oc(-c2ccccc2)nc1S(=O)(=O)c1ccc(C)cc1` as the compound, how does the Potency read?
A: Its Potency is inconclusive: 17.8 µM [inhibitor, single point].

Q: For `CCN1CCN(c2nc3c(s2)CN(C(=O)c2ccccn2)CC3)CC1`, which Potency is on record?
A: Its Potency is “inactive”.

Q: For `CN1C(=O)C(CC(=O)N2CC(n3cccn3)C2)(Cc2ccccc2)c2ccccc21` (stereo not given), which Potency is on record?
A: Its Potency is “inactive”.

Q: Which Potency does the source give for `Cc1ccc(-c2nnc(C3CN(C(=O)c4cc(F)cc(F)c4)CC34CCOCC4)o2)cc1` (stereo not given) here?
A: The Potency was inconclusive: 3.98 µM [inhibitor, partial curve, poor fit].

Q: For `COCCNC(=O)[C@@H]1C[C@@H](O)CN1C1CCN(C(=O)CCc2c[nH]c3ccccc23)CC1`, which Potency is on record?
A: The Potency was “inactive”.

Q: With `CCCNC(=O)N(C1CCOCC1)C1CCN(C(=O)c2ccc(C)s2)CC1` as the compound, how does the Potency read?
A: Its Potency is “inactive”.

Q: For `O=C1CN(C(=O)c2ccccc2)C(c2ccc(F)cc2)c2cc(Br)ccc2N1` (stereo not given), which Potency is on record?
A: The Potency was inconclusive: 17.8 µM [inhibitor, single point].
